# Laboratory results published in the BET-seq Pho4 binding data (Le et al. 2018).
# The list shows a part of the results. Values were computed here from the reads of four pooled replicates and scatter widely.
# Target: T1, Pho4 (S. cerevisiae) (UniProt P07270)
# T1 sequence: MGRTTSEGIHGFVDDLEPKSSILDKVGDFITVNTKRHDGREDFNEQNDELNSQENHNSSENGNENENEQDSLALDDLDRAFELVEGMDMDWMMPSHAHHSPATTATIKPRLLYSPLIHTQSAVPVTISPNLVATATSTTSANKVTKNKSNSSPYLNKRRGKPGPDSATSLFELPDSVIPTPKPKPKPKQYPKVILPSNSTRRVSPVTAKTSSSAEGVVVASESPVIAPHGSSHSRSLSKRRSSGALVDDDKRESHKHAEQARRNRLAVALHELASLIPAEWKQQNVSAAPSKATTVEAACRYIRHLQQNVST
# Test: relative binding free energy (BET-seq); higher = weaker binding
# Settings: reference: library average
row,Sequence,relative binding free energy [kcal/mol]
1,GAGTCCACGTGTGGAG,0.24
2,GGTTCCACGTGTGTTC,0.2
3,AGGGTCACGTGTAGCT,0.14
4,TGCGTCACGTGATAGT,0.21
5,TTTTCCACGTGGCGGG,0.14
6,TTTATCACGTGGTTTC,0.22
7,TTTATCACGTGTTCTA,-0.02
8,CTGTCCACGTGAGGTT,0.22
9,GTTATCACGTGGTACT,0.09
10,TACGGCACGTGGGTTA,-0.18
11,GGGCTCACGTGTGTTG,0.25
12,TTTCACACGTGAGGGG,0.15
13,TTGATCACGTGGGGCC,-0.02
14,TTGTACACGTGATGAT,0.15
15,GTGGACACGTGGTGGA,0.07
16,CAGTTCACGTGGGGAA,0.1
17,TAGAACACGTGGTGTA,-0.21
18,GTCTGCACGTGGCGTT,-0.02
19,CTTTACACGTGACGGG,0.38
20,CTAGGCACGTGCTGTT,-0.2
21,TGTGACACGTGGTGCA,-0.2
22,AACGTCACGTGGGATT,0
23,AGGGTCACGTGAAGCG,0.23

row,Sequence,relative binding free energy [kcal/mol]
1,TATGTCACGTGCTGAT,0.05
2,AGTTTCACGTGTATAG,0.24
3,GGGGACACGTGAAGAG,0.28
4,GCGGGCACGTGGAAGG,0
5,GCAGGCACGTGTGGCT,-0.06
6,TGGCTCACGTGTTGCT,0.16
7,TTCATCACGTGGATAT,0.15
8,GGGCGCACGTGGATAT,0
9,TAAGGCACGTGGTGGA,-0.13
10,CTTTTCACGTGTATGA,0.29
11,TATTACACGTGTACTG,0.05
12,CGTGTCACGTGGAGGC,0.15
13,GAAGACACGTGGTTTG,-0.09
14,GTGAGCACGTGGGCTT,-0.12
15,ATTTTCACGTGGGAAT,0.3
16,TTTAACACGTGTCGGA,0.04
17,CCGGTCACGTGTGGGA,0.1
18,ACTGGCACGTGGTGGC,-0.16
19,AGGTACACGTGAGTGT,0.23
20,TTAATCACGTGCTAGT,0.07
21,TGTAGCACGTGCTAGT,-0.21
22,AGCTTCACGTGGTTGT,0.25
23,TGTAGCACGTGTTGTT,-0.01

row,Sequence,relative binding free energy [kcal/mol]
1,CTGGTCACGTGGGGGC,-0.09
2,AAGGCCACGTGAGGTT,0.12
3,TATTTCACGTGGTAAT,0.19
4,AAGGGCACGTGTATGT,-0.06
5,TGGATCACGTGATGAA,0.35
6,GGGGACACGTGTAGAG,0.16
7,ATCGGCACGTGGGGTT,-0.34
8,TAGATCACGTGGGGTC,0
9,GGACTCACGTGTAGGG,0.02
10,TGTACCACGTGGGTGT,-0.2
11,GCTTTCACGTGGAGTA,0.29
12,GGGCGCACGTGTTCGG,-0.07
13,GGAACCACGTGTAGGG,-0.04
14,AGATGCACGTGAGAGG,0.31
15,ATGAGCACGTGTATGT,-0.12
16,AGGAGCACGTGCAGAG,0
17,TATGGCACGTGGCTAT,-0.2
18,TGTAGCACGTGAGGTG,0.11
19,GTTAGCACGTGGAATT,0.17
20,GGTTACACGTGTCTGT,0.13
21,CGCGGCACGTGAAGTG,0.26
22,TGGGTCACGTGTGGCC,0.09
23,GAGGGCACGTGGTGAT,-0.03

row,Sequence,relative binding free energy [kcal/mol]
1,TTTATCACGTGAGAAG,0.39
2,TGGGACACGTGTGAGC,0.14
3,GAAGGCACGTGTGGAT,0.13
4,CGCGTCACGTGGATGG,0.06
5,GGGGTCACGTGGTGTG,0.07
6,CGGGACACGTGGAGTT,0.11
7,TGGGGCACGTGTTCGG,-0.12
8,GTAGGCACGTGGCGAT,-0.09
9,GTTTGCACGTGTAGAC,0.1
10,TTATCCACGTGTGGAG,0.15
11,TTTCGCACGTGATTGC,0.06
12,ATGTGCACGTGCAGGG,-0.14
13,ATAGGCACGTGAGAAT,0.12
14,GTTAGCACGTGGCCGT,-0.06
15,TGGGACACGTGTTATA,-0.02
16,CCGTTCACGTGGTGGA,0.16
17,TGTGACACGTGTAAGT,0.11
18,AGTTTCACGTGTAAAT,0.31
19,AGTAGCACGTGGCAAG,-0.14
20,CAGATCACGTGAGGGG,0.32
21,TCATGCACGTGTGGAA,0.01
22,CAGTGCACGTGAGGCG,0.11
23,GGTGTCACGTGCGCGG,-0.03

row,Sequence,relative binding free energy [kcal/mol]
1,TAGTACACGTGGGGTT,-0.11
2,TGGACCACGTGGGGGT,-0.2
3,GGAGGCACGTGTTTTA,-0.1
4,TTGTGCACGTGTCACT,-0.05
5,CGTGGCACGTGGAATG,-0.08
6,GTGAGCACGTGAGCGG,-0.01
7,TATGCCACGTGAAGTT,0.22
8,TTGGTCACGTGGAAAA,0.21
9,ATTTTCACGTGCGAAT,0.29
10,TTCGGCACGTGGGTAC,-0.04
11,ACGGGCACGTGTGGGA,-0.12
12,TTGTTCACGTGAATGA,0.45
13,AGGGGCACGTGGACTG,-0.09
14,TGAGGCACGTGTGAAA,0.18
15,TGGGGCACGTGAGACT,0.09
16,GATTGCACGTGTTGGA,0.06
17,TAAATCACGTGGGTGT,-0.07
18,CGCTTCACGTGGATGG,0.26
19,TGATGCACGTGTAGTG,0.01
20,CAGAGCACGTGGGATG,-0.2
21,ATGAGCACGTGCGGAT,-0.03
22,TTTTTCACGTGTAGAC,0.28
23,GGTTACACGTGCCGTT,0.14
